Data from PubChem BioAssay (NCI).
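Compound exposure: 48 hours, 5 concentrations, 96-well plates. At the GI50, growth is halved. The concentration for full growth arrest is given as TGI.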

Test system: NCI-H322M lung
Assay: inhibition of tumour cell growth, NCI panel, 48 h

Cn1ccnc1C(=O)/C=C/c1ccc(NC(=O)c2ccc(F)cc2)cc1
GI50: 4.47 µM
TGI: > 33.3 µM
